Paper PMC6570896
These are yes or no findings as the source states them, for the method shown. In cells and extracts the contact can be indirect. Some results given as binding are weak or reduced against the parent protein; the word gives no strength. For part of these data: Tags and fused reporters may be left off the sequences shown.

By UniProt entry, the sequences of proteins in these tests, tags left out.
UniProt Q9FXM3: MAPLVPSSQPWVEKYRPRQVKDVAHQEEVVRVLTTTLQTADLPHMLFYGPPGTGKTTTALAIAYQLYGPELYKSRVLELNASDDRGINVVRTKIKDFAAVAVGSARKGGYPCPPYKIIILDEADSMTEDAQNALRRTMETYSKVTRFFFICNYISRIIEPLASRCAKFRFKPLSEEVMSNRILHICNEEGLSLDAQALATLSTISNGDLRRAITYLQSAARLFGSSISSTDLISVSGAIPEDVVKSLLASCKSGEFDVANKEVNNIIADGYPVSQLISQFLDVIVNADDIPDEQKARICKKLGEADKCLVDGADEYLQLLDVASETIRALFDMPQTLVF
UniProt Q9ZW35: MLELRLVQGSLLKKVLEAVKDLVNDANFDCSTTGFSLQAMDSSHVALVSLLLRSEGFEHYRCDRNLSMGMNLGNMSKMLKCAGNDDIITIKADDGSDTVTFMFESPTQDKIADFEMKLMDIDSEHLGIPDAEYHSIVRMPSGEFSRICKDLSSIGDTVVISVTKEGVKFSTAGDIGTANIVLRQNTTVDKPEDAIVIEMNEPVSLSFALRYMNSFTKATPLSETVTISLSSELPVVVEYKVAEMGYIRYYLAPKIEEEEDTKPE
UniProt P17070: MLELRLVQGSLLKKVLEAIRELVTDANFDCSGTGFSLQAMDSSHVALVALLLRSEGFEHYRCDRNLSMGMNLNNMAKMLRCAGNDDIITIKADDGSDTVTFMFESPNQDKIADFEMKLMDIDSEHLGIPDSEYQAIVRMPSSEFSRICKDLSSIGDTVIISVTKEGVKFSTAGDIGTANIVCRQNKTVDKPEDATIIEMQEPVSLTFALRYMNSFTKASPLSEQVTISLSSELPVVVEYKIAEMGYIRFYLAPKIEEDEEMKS
UniProt Q9M7Q7: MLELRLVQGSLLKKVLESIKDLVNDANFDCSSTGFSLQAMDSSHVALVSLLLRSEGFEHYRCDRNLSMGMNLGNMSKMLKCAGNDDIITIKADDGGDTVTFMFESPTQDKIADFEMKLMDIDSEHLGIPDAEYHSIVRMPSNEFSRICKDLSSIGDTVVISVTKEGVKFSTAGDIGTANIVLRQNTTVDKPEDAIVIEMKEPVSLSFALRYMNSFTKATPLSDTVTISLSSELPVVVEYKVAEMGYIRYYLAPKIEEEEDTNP

Assays:
Experiment in all cases: split reporter; BiFC: fusions to YFP^N (1-155 aa) and YFP^C (156-239 aa) co-expressed transiently in Nicotiana benthamiana leaf epidermal cells; YFP seen by confocal microscopy
[1] = biological target: T1, OsRFC4-YFP^N (rice (Oryza sativa)) (UniProt Q7XRX1)
T1 sequence: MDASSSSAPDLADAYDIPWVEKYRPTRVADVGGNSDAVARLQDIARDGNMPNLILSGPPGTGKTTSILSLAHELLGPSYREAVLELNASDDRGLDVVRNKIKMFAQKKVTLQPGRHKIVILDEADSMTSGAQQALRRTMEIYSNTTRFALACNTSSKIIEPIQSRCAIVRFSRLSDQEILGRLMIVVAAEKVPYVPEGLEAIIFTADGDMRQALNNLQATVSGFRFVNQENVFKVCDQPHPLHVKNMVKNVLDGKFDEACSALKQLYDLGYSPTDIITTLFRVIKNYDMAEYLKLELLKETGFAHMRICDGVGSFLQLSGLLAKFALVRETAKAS

[2] = biological target: T2, OsRFC3-YFP^N (rice (Oryza sativa)) (UniProt Q6YZ54)
T2 sequence: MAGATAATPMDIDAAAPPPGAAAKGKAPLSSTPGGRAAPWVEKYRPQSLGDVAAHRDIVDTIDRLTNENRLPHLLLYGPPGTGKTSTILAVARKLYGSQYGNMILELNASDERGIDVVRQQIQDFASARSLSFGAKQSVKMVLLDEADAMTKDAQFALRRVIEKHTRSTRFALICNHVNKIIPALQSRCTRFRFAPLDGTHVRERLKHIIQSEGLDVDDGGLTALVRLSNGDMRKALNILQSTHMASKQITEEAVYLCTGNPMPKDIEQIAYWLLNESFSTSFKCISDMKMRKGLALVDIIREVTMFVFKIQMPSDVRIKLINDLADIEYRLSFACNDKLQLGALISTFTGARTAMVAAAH

[3] = biological target: OsRFC2-YFP^N (rice (Oryza sativa)) (UniProt Q9FXM3)
[4] = biological target: T3, OsRFC1-YFP^N (rice (Oryza sativa)) (UniProt Q2R2B4)
T3 sequence: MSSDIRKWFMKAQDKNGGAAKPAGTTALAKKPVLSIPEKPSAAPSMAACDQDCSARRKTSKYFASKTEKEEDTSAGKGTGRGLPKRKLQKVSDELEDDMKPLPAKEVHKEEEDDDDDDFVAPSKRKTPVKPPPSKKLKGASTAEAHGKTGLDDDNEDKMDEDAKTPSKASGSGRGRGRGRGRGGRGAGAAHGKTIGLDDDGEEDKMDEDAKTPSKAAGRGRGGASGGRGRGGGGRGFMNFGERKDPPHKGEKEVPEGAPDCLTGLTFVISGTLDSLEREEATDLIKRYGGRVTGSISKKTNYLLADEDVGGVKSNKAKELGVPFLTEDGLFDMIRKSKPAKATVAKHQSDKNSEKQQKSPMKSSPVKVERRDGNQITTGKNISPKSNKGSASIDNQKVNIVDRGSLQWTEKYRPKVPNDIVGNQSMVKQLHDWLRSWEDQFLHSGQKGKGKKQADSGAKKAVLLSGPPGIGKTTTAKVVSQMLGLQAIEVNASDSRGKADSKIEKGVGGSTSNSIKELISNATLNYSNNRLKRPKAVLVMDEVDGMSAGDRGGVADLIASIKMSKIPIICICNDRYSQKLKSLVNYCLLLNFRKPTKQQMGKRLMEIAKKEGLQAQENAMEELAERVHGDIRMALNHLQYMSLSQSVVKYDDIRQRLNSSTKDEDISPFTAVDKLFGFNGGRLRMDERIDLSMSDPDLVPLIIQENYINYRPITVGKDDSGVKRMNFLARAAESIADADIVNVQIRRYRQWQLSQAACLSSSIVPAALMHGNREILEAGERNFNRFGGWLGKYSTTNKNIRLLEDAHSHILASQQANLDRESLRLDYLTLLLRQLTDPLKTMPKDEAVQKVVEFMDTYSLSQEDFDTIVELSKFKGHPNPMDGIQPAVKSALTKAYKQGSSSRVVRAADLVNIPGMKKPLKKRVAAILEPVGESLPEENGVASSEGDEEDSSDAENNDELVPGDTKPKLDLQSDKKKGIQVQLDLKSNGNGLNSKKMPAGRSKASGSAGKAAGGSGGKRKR

[5] = biological target: T4, AtRFC2-YFP^N (Arabidopsis thaliana) (UniProt Q9CAM7)
T4 sequence: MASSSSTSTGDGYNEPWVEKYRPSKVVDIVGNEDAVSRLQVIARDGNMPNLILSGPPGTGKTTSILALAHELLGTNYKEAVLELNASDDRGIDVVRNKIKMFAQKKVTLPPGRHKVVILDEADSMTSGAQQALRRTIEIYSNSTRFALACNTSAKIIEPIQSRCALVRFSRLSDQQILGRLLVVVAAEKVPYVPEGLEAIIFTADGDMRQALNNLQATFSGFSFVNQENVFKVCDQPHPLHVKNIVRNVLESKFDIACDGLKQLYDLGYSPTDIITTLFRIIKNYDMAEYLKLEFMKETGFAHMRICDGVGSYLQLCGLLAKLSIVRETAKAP

[6] = biological target: T5, OsRFC5-YFP^N (rice (Oryza sativa)) (UniProt Q852K3)
T5 sequence: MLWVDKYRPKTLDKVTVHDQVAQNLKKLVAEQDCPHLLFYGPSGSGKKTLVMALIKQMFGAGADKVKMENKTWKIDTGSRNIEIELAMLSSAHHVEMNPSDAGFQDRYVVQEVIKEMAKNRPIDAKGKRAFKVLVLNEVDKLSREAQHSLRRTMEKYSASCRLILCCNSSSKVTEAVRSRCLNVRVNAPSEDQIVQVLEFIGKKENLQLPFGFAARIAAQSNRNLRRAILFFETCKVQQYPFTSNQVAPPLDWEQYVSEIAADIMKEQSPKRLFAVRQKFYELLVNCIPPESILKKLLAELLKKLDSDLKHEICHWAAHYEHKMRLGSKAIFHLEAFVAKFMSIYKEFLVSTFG

Measured: binding

AtPCNA2-YFP^C (from UniProt Q9ZW35 1-264)
binds: all assays above

OsPCNA-YFP^C (from UniProt P17070 1-263)
binds: all assays above

AtPCNA1-YFP^C (from UniProt Q9M7Q7 1-263)
binds: all assays above
